# Measured values published in the supplement of paper PMC9046079.
# Structures can show the parent of a compound that is named as a salt. ± gives the standard deviation of the averaged measurements. The list shows a part of the results.
# Legend:
# [1] = tested on: murine small intestinal organoids (ENR+CD Paneth differentiation); test: cellular ATP (CellTiter-Glo 3D) relative to plate median (log10 fold change); higher = more viable cells; details: 6 d
# [2] = tested on: murine small intestinal organoids (ENR+CD Paneth differentiation); test: carbachol-stimulated secreted lysozyme activity relative to plate median (log10 fold change); higher = more Paneth cell lysozyme secretion; details: 6 d, carbachol 10 µM
# [3] = tested on: murine small intestinal organoids (ENR+CD Paneth differentiation); test: basal (non-stimulated) secreted lysozyme activity relative to plate median (log10 fold change); higher = more Paneth cell lysozyme secretion; details: 6 d
# 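Wherever basal (non-stimulated) secreted lysozyme activity relative to plate median is given: ISC-enriched organoid precursors grown as 2.5D pseudo-monolayer on Matrigel, compound given on day 0 and day 3, plate values LOESS-normalized before median fold change, three murine donors.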
# 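Wherever cellular ATP (CellTiter-Glo 3D) relative to plate median is given: 2.5D pseudo-monolayer culture of ISC-enriched organoids partly embedded atop Matrigel, compound added on day 0 and again on day 3, per-plate LOESS correction before median fold change.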
SMILES,cellular ATP (log10) ([1]; 0.08 µM),cellular ATP (log10) ([1]; 0.4 µM),cellular ATP (log10) ([1]; 2 µM),cellular ATP (log10) ([1]; 10 µM),carbachol-stimulated secreted lysozyme activity (log10) ([2]; 0.08 µM),carbachol-stimulated secreted lysozyme activity (log10) ([2]; 0.4 µM),carbachol-stimulated secreted lysozyme activity (log10) ([2]; 2 µM),carbachol-stimulated secreted lysozyme activity (log10) ([2]; 10 µM),basal (log10) ([3]; 0.08 µM),basal (log10) ([3]; 0.4 µM),basal (log10) ([3]; 2 µM),basal (log10) ([3]; 10 µM)
O=C(Nc1ccccc1)N1CCN(c2nc(-c3ccccc3)ns2)CC1,-0.0941 ± 0.39,-0.262 ± 0.24,-0.0548 ± 0.33,-0.145 ± 0.31,0.161 ± 0.19,-0.00452 ± 0.011,-0.0512 ± 0.05,-0.058 ± 0.086,0.122 ± 0.095,0.075 ± 0.16,0.103 ± 0.23,0.0466 ± 0.14
COc1cc2c(cc1-c1c(C)noc1C)ncc1[nH]c(=O)n([C@H](C)c3ccccn3)c12,-0.0162 ± 0.2,-0.174 ± 0.24,-0.502 ± 0.074,-0.935 ± 0.24,-0.323 ± 0.045,-0.41013 ± 0.00031,-0.502 ± 0.018,-0.501 ± 0.039,-0.116 ± 0.077,-0.248 ± 0.09,-0.299 ± 0.12,-0.284 ± 0.15
CC(=NNC(=S)N1CCC1)c1ccccn1,0.132 ± 0.097,-0.185 ± 0.38,-0.447 ± 0.72,-1.91 ± 0.14,0.11 ± 0.062,0.0744 ± 0.69,-0.283 ± 0.28,-0.373 ± 0.024,0.113 ± 0.087,-0.0896 ± 0.23,-0.152 ± 0.15,-0.229 ± 0.097
OC(CC1c2ccccc2-c2cncn21)C1CCCCC1 (stereo unspecified),-0.0981 ± 0.11,-0.168 ± 0.13,-0.126 ± 0.06,-0.203 ± 0.095,0.0122 ± 0.05,-0.101 ± 0.32,0.114 ± 0.29,-0.0201 ± 0.019,-0.0532 ± 0.023,-0.115 ± 0.085,-0.0619 ± 0.034,-0.0156 ± 0.031
O=C(NCc1cccc(O)c1)Nc1nc(-c2ccncc2)cs1,-0.289 ± 0.16,-0.161 ± 0.31,-0.173 ± 0.19,-0.199 ± 0.37,-0.0377 ± 0.1,0.0318 ± 0.098,0.0319 ± 0.15,-0.208 ± 0.4,-0.044 ± 0.049,0.108 ± 0.29,0.00159 ± 0.061,-0.149 ± 0.19
CC1(C)CCC(CN2CCN(c3ccc(C(=O)NS(=O)(=O)c4ccc(NCC5CCOCC5)c([N+](=O)[O-])c4)c(Oc4cnc5[nH]ccc5c4)c3)CC2)=C(c2ccc(Cl)cc2)C1,0.0189 ± 0.2,0.0375 ± 0.17,-0.278 ± 0.55,-0.519 ± 0.21,-0.0209 ± 0.11,0.116 ± 0.083,-0.0433 ± 0.12,-0.391 ± 0.072,-0.0015 ± 0.1,-0.0289 ± 0.092,-0.0156 ± 0.075,-0.169 ± 0.15
CC(C)NCC(O)COc1cccc2ccccc12 (stereo unspecified) [Propranolol HCl],0.126 ± 0.077,0.0178 ± 0.15,0.101 ± 0.23,0.115 ± 0.096,0.0951 ± 0.13,-0.00107 ± 0.027,0.064 ± 0.1,0.0195 ± 0.14,0.0282 ± 0.079,0.102 ± 0.14,0.0794 ± 0.076,0.0482 ± 0.11
C[C@H](CS)C(=O)N1CCC[C@H]1C(=O)O [Captopril],-0.0561 ± 0.097,0.108 ± 0.096,0.123 ± 0.1,0.107 ± 0.31,0.0242 ± 0.07,0.113 ± 0.094,0.0139 ± 0.14,0.0928 ± 0.18,0.0587 ± 0.079,0.0353 ± 0.049,0.0327 ± 0.11,0.153 ± 0.14
CN(C)C(=O)Nc1cccc(-c2ccc(N(C)C)cc2)c1 [Atglistatin],0.0572 ± 0.026,0.0039 ± 0.067,-0.0452 ± 0.33,-0.431 ± 0.46,0.0057 ± 0.059,-0.0442 ± 0.16,0.0545 ± 0.027,0.0658 ± 0.48,0.0694 ± 0.066,0.135 ± 0.27,0.0704 ± 0.072,-0.0163 ± 0.14
CCCCN1CCCCC1C(=O)Nc1c(C)cccc1C (stereo unspecified) [Bupivacaine HCl],-0.0033 ± 0.19,-0.217 ± 0.19,-0.3 ± 0.21,-0.364 ± 0.15,0.169 ± 0.16,-0.21 ± 0.035,-0.286 ± 0.035,-0.358 ± 0.046,0.00179 ± 0.027,-0.1 ± 0.052,-0.137 ± 0.083,-0.195 ± 0.13
O=S(=O)(c1ccccc1)N(CC(F)(F)F)c1ccc(C(O)(C(F)(F)F)C(F)(F)F)cc1,0.063 ± 0.38,-0.22 ± 0.92,0.216 ± 0.33,0.245 ± 0.45,0.0129 ± 0.072,-0.0231 ± 0.077,0.0483 ± 0.16,0.0285 ± 0.12,0.0842 ± 0.054,0.00181 ± 0.09,0.0123 ± 0.069,-0.0212 ± 0.023
CC(C)N(CCCNC(=O)Nc1ccc(C(C)(C)C)cc1)C[C@H]1O[C@@H](n2cc(Br)c3c(N)ncnc32)[C@H](O)[C@@H]1O,-0.0196 ± 0.2,-0.167 ± 0.16,0.0789 ± 0.17,-0.102 ± 0.28,0.14 ± 0.16,-0.227 ± 0.25,0.03 ± 0.064,0.0255 ± 0.051,0.0882 ± 0.054,-0.0134 ± 0.13,0.111 ± 0.13,0.0805 ± 0.023
C#Cc1cccc(Nc2ncnc3cc4c(cc23)OCCOCCOCCO4)c1 [Icotinib],-0.0196 ± 0.11,-0.0612 ± 0.21,-0.406 ± 0.31,-1.07 ± 0.16,0.106 ± 0.042,-0.0914 ± 0.12,-0.25 ± 0.061,-0.499 ± 0.028,0.0293 ± 0.069,-0.0726 ± 0.029,-0.133 ± 0.026,-0.289 ± 0.042
C#Cc1cccc(Nc2ncnc3cc(OCCOC)c(OCCO)cc23)c1,0.106 ± 0.39,-0.13 ± 0.5,-1.26 ± 0.37,-1.1 ± 0.35,0.111 ± 0.082,-0.217 ± 0.075,-0.454 ± 0.026,-0.429 ± 0.0088,0.115 ± 0.14,-0.224 ± 0.025,-0.287 ± 0.074,-0.325 ± 0.093
CN(C)CCc1c[nH]c2ccc(Cn3cncn3)cc12 [Rizatriptan Benzoate],0.224 ± 0.3,-0.0744 ± 0.44,0.0613 ± 0.2,-0.128 ± 0.069,0.264 ± 0.024,0.0177 ± 0.096,-0.127 ± 0.07,0.043 ± 0.037,0.0536 ± 0.17,0.0174 ± 0.038,-0.0247 ± 0.12,0.0299 ± 0.018
COc1cc(Nc2ncc(F)c(Nc3ccc4c(n3)N(COP(=O)(O)O)C(=O)C(C)(C)O4)n2)cc(OC)c1OC [Fostamatinib (R788)],0.232 ± 0.23,-0.0516 ± 0.22,-0.231 ± 0.46,-0.881 ± 0.48,0.307 ± 0.063,0.253 ± 0.16,0.0551 ± 0.069,-0.422 ± 0.038,0.119 ± 0.12,-0.0249 ± 0.064,-0.0988 ± 0.057,-0.234 ± 0.093
N#CC[C@H](C1CCCC1)n1cc(-c2ncnc3[nH]ccc23)cn1,0.466 ± 0.18,0.254 ± 0.12,0.433 ± 0.18,0.423 ± 0.18,0.148 ± 0.033,0.0461 ± 0.08,0.105 ± 0.053,0.246 ± 0.21,0.151 ± 0.017,0.034 ± 0.047,0.135 ± 0.035,0.248 ± 0.19
O=C(c1cn(Cc2cncn2Cc2ccc(Br)cc2)cc1-c1cccc2ccccc12)N1CCOCC1,-0.0718 ± 0.077,-0.342 ± 0.47,-0.116 ± 0.45,-0.706 ± 0.49,-0.127 ± 0.088,-0.213 ± 0.13,-0.333 ± 0.044,-0.341 ± 0.049,-0.116 ± 0.032,-0.14 ± 0.059,-0.176 ± 0.11,-0.182 ± 0.14
